Experimental data: PubChem BioAssay AID686979 (National Center for Advancing Translational Sciences (NCATS), 2013)
Screen size: about 420,000 compounds; about 50,000 (12%) were called active. Inconclusive results, whose numbers are uncertain, are shown with a selection of clear calls. The call rests on the fitted dose curve; in most records, active means well fitted inhibition curve with a large enough effect; inconclusive means small, poorly fitted or top-dose-only effect; inactive means flat fitted curve, though single readings scatter. No potency is given beside an inconclusive call; the fits are too rough.

Assay: qHTS for Inhibitors of human tyrosyl-DNA phosphodiesterase 1 (TDP1): qHTS in cells in presence of CPT; further: nearly all actives have a fitted effect of over 55% in size
Details: chicken DT40 Tdp1-/-;hTDP1 cells + 20 nM CPT, ATP luminescence, 48 h; series mostly up to 46.2 µM
Procedure, shortened: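 Chicken DT40 Tdp1-/- cells stably complemented with human TDP1 were seeded at 400 cells/well in medium containing 20 nM camptothecin, exposed to pin-transferred compounds, and grown at 37 °C for at least 48 hr. Viability was read as ATP luminescence.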
Potency means the concentration at half of the fitted maximal effect; tags describe the fitted curve by direction and shape.

Structure (SMILES)	Potency
N#Cc1nc(COc2ccccc2)oc1N1CCCCC1	inconclusive [inhibitor, single point]
O=S(=O)(Nc1cccnc1Cl)c1ccc2c(c1)OCCO2	inactive
O=C(NC1CCCCC1)c1ccc2c(c1)N(Cc1ccccc1F)C(=O)c1ccccc1S2	inconclusive [inhibitor, single point]
CC(C)OP(=O)(OC(C)C)C1(O)C(=O)Nc2ccc(Br)cc21 (configuration not stated)	inconclusive [inhibitor, single point]
CCOc1ccc(CNC(=O)CN2C(=O)C(c3ccccc3)Oc3cccnc32)cc1 (configuration not stated)	inactive
O=C(Nc1ccccc1)C1=C[C@@H](C2CC2)C[C@@H](OCCCCO)O1	inactive
c1cncc(CNc2ncnc3ccc(-c4ccoc4)cc23)c1	active: 10.3 µM
Cc1cccc(NC(=O)CSc2nnc(CNC(=O)c3cccc(C)c3)n2-c2ccccc2)c1	inconclusive [inhibitor, single point]
Cn1cccc1/C=C1\SC(=O)N(CC(=O)Nc2ccc(F)cc2)C1=O	inactive
CC(NC(=O)C(=O)N1CCOCC1)C(c1cccs1)N1CCN(c2ccc(F)cc2)CC1 (configuration not stated)	inactive
CCCCn1c(CN2CCN(c3ccc(OC)cc3)CC2)nc2c1c(=O)[nH]c(=O)n2C	inconclusive [inhibitor, partial curve]
COc1ccc(/C=N/NC(=O)c2[nH]c3ccc(Cl)cc3c2-c2ccccc2)c(C(=O)O)c1OC	inactive
O=c1cc(CN2CCCCCC2)nc2sccn12	inconclusive [inhibitor, single point]
Nc1nc(COc2ccc3ccccc3c2)cs1	inconclusive [inhibitor, single point]
Cc1ccc(CNC(=O)C2CCN(Cc3nc(-c4ccccc4C)oc3C)CC2)cc1	inconclusive [inhibitor, full curve, poor fit]
CCN(CCN(C)C)C(=O)Cn1ncc2c([nH]c3ccc(C)cc32)c1=O	inactive
Cc1ccn2c(Nc3ccccc3C)c(-c3ccncc3)nc2c1	active: 16.4 µM
CC(C)CCN1C(=O)c2ccc(C(=O)Nc3c[nH]c(=O)[nH]c3=O)cc2C1=O	inconclusive [inhibitor, single point]
COc1cc(C2Nc3ccccc3NC3=C2C(=O)CC(C)(C)C3)cc(OC)c1OC (configuration not stated)	inactive
CC(C)NC(=O)/C(C#N)=C/c1ccc2c(c1)OCCO2	inactive
COc1ccc(-c2noc(CN(C(=O)c3ccccc3Cl)C(C)C)n2)cc1	active: 25.9 µM
CCOC(=O)C1CCCN(C(=O)Cn2ncc3c(=O)oc4ccc(C)cc4c32)C1 (configuration not stated)	inactive
